Data from the RNAGym collection of RNA variant scans (doi:10.1101/gad.245936.114).
Variants at the floor of the assay are shown more often than the library holds them.

B1: tRNA (parent)
chain: CUCUCGGUAGCCAAGUUGGUUUAAGGCGCAAGACUUUAAUUUAUCACUACGAAAUCUUGAGAUCGGGCGUUCGACUCGCCCCCGGGAGAUUUUUUCCUCGAGCAA

Variants of: B1
Assay: nonsense suppression (GFP-seq) (ratio to wild type); higher = more function; SUP4oc tRNA, yeast GFP reporter sort-seq
In short: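 Raffinose/galactose medium with 80 mg/L adenine was used to grow yeast carrying genome-integrated tRNA variants (~3% random-mutation library), RFP, and a galactose-driven GFP ochre reporter. Cells went into GFP/RFP bins, which were Illumina-sequenced, and variants with ≥100 reads and ≥30 cells were scored. Nonsense suppression (GFPSEQ) is the per-bin median GFP/RFP weighted by estimated cell share and expressed relative to the unmutated parent tRNA.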
With CUCUCGGUAGCCAAGUUUGUUUAAGGCCCAAGACUUUAAUUUAUCACUACGAAAUCUUGAGAUCGGGCGUUCGACUCGCUCCCGGGAGAUUUUUUCCUCGAGCAA the nonsense suppression was ≤ 0.026.
In the case of CUCUCGGUAGCCAAGUUUGCUUAAGGCGCAAGACAUUAAUUUAUCACUACGAAAUCUUGAGAUCGGGCGUUCGACUCGCCCCCGGGAGCUUUUUUCCUCGAGCAA, the nonsense suppression is reported as ≤ 0.026.
For CUCUCGGUAGCCAAGUUGAUUUAAGGCGCAAGACUUUAAUUUAUCACUACGAAAUCUUGGGAUCGGGCGUUCGACUCGCCCCCGGGAGAUUUUUUCCUCGAGCAA, the nonsense suppression was ≤ 0.026.
In the case of CUCUCGGUAGCCAAGUUUGUUUAAGGCGCAAGUCUUUAAUUUAUCACUACGAAAUCUUGAGAUCGGGCGUUCGACUCGCCCCCGGGAGAUUUUUUCCUCGAGCAA, the nonsense suppression is reported as ≤ 0.026.
For CUCUCGGUAGCCAAGUUUGGUUAAGGCGCCAGACUUUAAUUUAUCACUACGAAAUCAUGAGAUCGGGCGUUCGACUCACUCCCGUGAGAUUUUUUCCUCGAGCAA, the nonsense suppression was ≤ 0.026.
For CUCUCGGUAGCCAAGUUUGUUUAAGGCGGAAGACUUUAAUUUAUCACUACGAAAUCUUGAGAUCGGGCGUUCCACUCGCCCCCGGGAGAUUUUUUCCUCGAGCAA, the nonsense suppression was ≤ 0.026.
With CUCUCGGUAGCCAAGUUGAUUUAAGGCGAAAGACUUUAAUUUAUCACUACGAAAUCUUGAGAUCGGGCGUUCGACUCGCCCCCGGGAGAUUUUUUCCUCGAGCAA the nonsense suppression was ≤ 0.026.
For CUCUCGGUAGCCAAGUUUGUUUAAGGCGCAAGAUUUUAAUUUAUCACUACGAAAUCUUGAGAUCGGGCGUUCGACUCGCCCCCGGGAGAUUUUUUCCUCGAGCAA, the nonsense suppression was ≤ 0.026.
With CUCUCGGUAGCCAAGUUUGUUUAAGGCGUAAGGCUUUAAUUUAUCACUACGAAAUCUUGAGAGCGGGCGUUCGACUCGCCCCCGGGAGAUUUUUUCCUCGAGCAA the nonsense suppression was ≤ 0.026.
With CUCUCGGUAGCCAAGUUUGUUGAUUGCGCAAGACUUUAAUUUAUCACUACGAAAUCUUGAGAUCGCGCGUUCGACUCGGCCCCGGGAUAUUUUUUCCUCGAGCAA the nonsense suppression was ≤ 0.026.
With CUCUCGGUAGCCAAGUUUGUUUAAGGGGCAAGACUUUAAUUUAUCACUACGAAAUCUUGAGAUCGGGCGUUCGACUCGCCCCCGGGAGAUUUUUUCCUCGAGCAA the nonsense suppression was ≤ 0.026.
In the case of CUCUCGGUAGCCAAGUUUGUAUAAGGCGCAAGACUUUAAUUUAUCACUACGAAAUCGUGAGAUCGGGCGUUCGACUCGCCCCCGGGAGAUUUUUUCCUCGAGCAA, the nonsense suppression is reported as ≤ 0.026.
For CUCUCGGUAGCCAAGUUUGUUUAAGGCGCAAGACUUUAAUUUAUCACUACGAAAUCUUGAGAUCGGGCGUUCGACUCGCCCCCGAGAGAUUUUUUCCUCGAGCAA, the nonsense suppression was ≤ 0.026.
For CUCUCGGUAGCCAAGUUGAUUUACGGCGCAAGACUUUAAUUUAUCACUACGAAAUCUUGAGAUCGGGCGUUCGACUCGCCCCCGGGAGAUUUUUUCCUCGAGCAA, the nonsense suppression was ≤ 0.026.
With CUCUCGGUAGCCAAGUUUGUUUAAGGGGCAAGACUUUAAUUUAUCACUACGAAAUCUUGAGUUCGGGCGUUCGACUCGCCCCCGGGAGAUUUUUUCCUCGAGCAA the nonsense suppression was ≤ 0.026.
With CUCUCGGUAGCCAAGUUUGUUUAAGGCGCAAGACUUUAAUUUAUCACUACGAAAUCUUGAGAUCGGGCGUUCGACUCGCCCUCGGCAGAUUUUUUCCUCGAGCAA the nonsense suppression was ≤ 0.026.
In the case of CUCUCGGUAGCCAAGUUUGUUUAAGGCGCAAGACUUUAAUUUAUCACUACGAAAUCUUGUGAUCGGGCGUUCGACUCGACCCCGGGAGAUUUUUUCCUCGAGCAA, the nonsense suppression is reported as ≤ 0.026.
In the case of CUCUCGGUAGCCAAGUUUGUUUAAGGCGCAAGAUUUUAAUUUAUCACUACGAAAUCUUGAGAUCGGGCGUUCGACUCGCCCCCGGGAGGUUUUUUCCUCGAGCAA, the nonsense suppression is reported as ≤ 0.026.
In the case of CUCUCGGUAGCCAAGUUUGUUUAAGGCGCAAGGCUUUAAUUUAUCACUACGAAAACUUGAGAUCGGGCGUUCGAAUCGCCCCCGGGAGAUUUUUUCCUCGAGCAA, the nonsense suppression is reported as ≤ 0.026.
In the case of CUCUCGGUAGCCAAGUUUGUUUAAGGCGCAAGAGUUUAAUUUAUCACUACGAAAUCUUGAGAUCGGGCGUCAGACUCGCCCCCGGGAGAUUUUUUCCUCGAGCAA, the nonsense suppression is reported as ≤ 0.026.
For CUCUCGGUAGCCAAGUUUGUUUAAGGCGCAAGUCGUUAAUUUAUCACUACGAAAUCUUGAGAUCGGGCGUUCGACUCGCCCCCGGGAGAUUUUUUCCUCGAGCAA, the nonsense suppression was ≤ 0.026.
CUCUCGGUAGCCAAGUUUGCUUAAGGCGCAAGACUUUAAUUUAUCACUACGAAAUCUUGAGAUCGGGCGUUCGACGCGCCCCCGGGAGAUUUUUUCCUCGAGCAA showed a nonsense suppression of 0.264.
With CUCUCGGUAGCCAAGUUUGUUUAAGGCGCAAGACUUUAAUUUAUCACUACGAAAUCUUGAGAACGGGCGUUCGACUCGCCCCCGGGAGAUUUUUUCCUCGAGCAA the nonsense suppression was ≤ 0.026.
In the case of CUCUCGGUAGCCAAGUUUGUUUAAGGCGCAAGAAUUUAAUUUAUCACUACGAAAUCUUGAGAUCGGCCGUUCGACUCGCCCCCGGGAGAUUUUUUCCUCGAGCAA, the nonsense suppression is reported as ≤ 0.026.
In the case of CUCUCGGUAGCCAAGUUGAUUUAAGGCGCAAGACUUUAAUUUAUCACUACGAAGUCUUGAGAUCGGGCGUUCGACUCGCCCCCGGGAGAUUUUUUCCUCGAGCAA, the nonsense suppression is reported as ≤ 0.026.
In the case of CUCUCGGUAGCCAAGUUUGUGUAAGGCGCAAGACUUUAAUUUAUCACUACGAAAUCGUAAAAUCGGGCGUUCGACUCGCCGCCGGGAGAUUUUUUCCUCGAGCAA, the nonsense suppression is reported as ≤ 0.026.
With CUCUCGGUAGCCAAGUUUCUUUUAGUCGCAAGAUUUUAAUUUAUCACUACGAAAUCUUGAGCUCGGGCGUUCGACUCGCCCCCGGGAGAUUUUUUCCUCGAGCAA the nonsense suppression was ≤ 0.026.
For CUCUCGGUAGCCAAGUUUGUUUAAGGCGCAAGACUUUAAUUUAUCACUACGAAAUCUUGAGAUCGGGCGUUCGACUCGCCCCCGGCAGAUUUUUUCCUCGAGCAA, the nonsense suppression was ≤ 0.026.
For CUCUCGGUAGCCAAGUUGAUUUGAGGCGCAAGACUUUAAUUUAUCACUACGAAAUCGUGAGAUCGGGCGUCCGACUCGCCCCCGGGAGAUUUUUUCCUCGAGCAA, the nonsense suppression was ≤ 0.026.
In the case of CUCUCGGUAGCCAAGUUUGUUUAAGGCGCAAGCCUUUAAUUUAUCACUACGAAAUCUUGAGAUCGGGGGUUCGACUCGCCCCCGGGAGAUUUUUUCCUCGAGCAA, the nonsense suppression is reported as ≤ 0.026.
With CUCUCGGUAGCCAAGUUGAUUUAAGGCGCGGGACGUUAAUUUAUCACUACGAAAUCUUGAGAUCGGGCGUUCGAGUCGCCCCCGGGAGAUUUUUUCCUCGAGCAA the nonsense suppression was ≤ 0.026.
For CUCUCGGUAGCCAAGUUUGUUUAAGGCCCAAGACUUUAAUUUAUCACUACGAAAUCUUGAGAUCGGGCGUUCGACUCGCUCCCGGGGGAUUUUUUCCUCGAGCAA, the nonsense suppression was ≤ 0.026.
With CUCUCGGUAGCCAAGUUUGUUUAAGGCGCAAGACUUUAAUUUAUCACUACGAAAUCUUGAGAUCGAGCGUUCGACUCGCCCCAGGGAGAUUUUUUCCUCGAGCAA the nonsense suppression was ≤ 0.026.
For CUCUCGGUAGCCAAGUUUGUUUAAUGCGCAAGACUUUAAUUUAUCACUACGAAAUCUUGAGAUCGGGCGCUCGACUCGCCCCCGGGAGAUUUUUUCCUCGAGCAA, the nonsense suppression was ≤ 0.026.
In the case of CUCUCGGUAGCCAAGUUGAUUUAAGGCGCGAGACUUUAAUUUAUCACUACGAAAUCUUGAGAUCGGGCGUUCGACUCGUCCCCGGGAGAUUUUUUCCUCGAGCAA, the nonsense suppression is reported as ≤ 0.026.
With CUCUCGGUAGCCAAGUUUGUUUAAGGGGCAAGACAUUAAUUUAUCACUACGAAAUCUUGAGAUCGGGCGUUCGACUCGCCCCCGGGAGAUUUUUUCCUCGAGCAA the nonsense suppression was ≤ 0.026.
For CUCUCGGUAGCCAAGUUGAUUUAUGGCGCAAGAAUUUAAUUUAUCACUACGAAAUCUUGAGAUCGGGCGUUCGACUCGCCCCCGGGAGAUUUUUUCCUCGAGCAA, the nonsense suppression was ≤ 0.026.
In the case of CUCUCGGUAGCCAAGUUUGUUUAAGGCGCAAGACUUUAAUUUAUCACUACGAAAUUUUGAGAUCGGGCGUUCGAAUCGCCCCCGGGAAAUUUUUUCCUCGAGCAA, the nonsense suppression is reported as ≤ 0.026.
With CUCUCGGUAGCCAAGUUUUUUUAAGGCGCAAGACUUUAAUUUAUCACUACGAAAUCUUGAGAUCGGGCGUUCGACUCGCCCCCGGGAGAUUUUUUCCUCGAGCAA the nonsense suppression was ≤ 0.026.
For CUCUCGGUAGCCAAGUUUGUUUAAGGCGCAAGACUUUAAUUUAUCACUACGAAAUCUUGAGAUCGGGCGUUCGACUGGCCCCCGGGAGGUUUUUUCCUCGAGCAA, the nonsense suppression was ≤ 0.026.
In the case of CUCUCGGUAGCCAAGUUGAUUUACGGCGCAAGACUUUAAUUUAUCACUACGAAAUCUUGAGAUCGGGCCUUCGACUCGCCCCCGCGAGAUUUUUUCCUCGAGCAA, the nonsense suppression is reported as ≤ 0.026.
In the case of CUCUCGGUAGCCAAGUUUGUUUAAGGCGCAAGACUUUAAUUUAUCACUACGAAAUCUUGAGCUCGGGCGUUCGACUCGCCCCCGGGAGAUUUUUUCCUCGAGCAA, the nonsense suppression is reported as ≤ 0.026.
In the case of CUCUCGGUAGCCAAGUUUGUUUAAAGCGCAAGACUUUAAUUUAUCACUACGAAAUCUUGAGAUCGGGCGUUCGACUCUCCCCCGGGAGAUUUUUUCCUCGAGCAA, the nonsense suppression is reported as ≤ 0.026.
With CUCUCGGUAGCCAAGUUUGUUUAAGGCGCAAGACUUUAAUUUAUCACUACGAAAUCUUGAGAUCGGGCAUUCGACUCGCCCCCGGGAGAUUUUUUCCUCGAGCAA the nonsense suppression was ≤ 0.026.
In the case of CUCUCGGUAGCCAAGUUUGGUUAAGGCGCAAGACUUUAAUUUAUCACUACGAAAUCUUGAGAUCCCGCGUUCGACUCGCCCCCGGGAGAUUUUUUCCUCGAGCAA, the nonsense suppression is reported as ≤ 0.026.
In the case of CUCUCGGUAGCCAAGUUUGUUUAAGGCGCAAGACUUUAAUUUAUCACUACGAAAUCUUGAGAUCGGGCGUUCGACCCGCCCCCGGUAGAUUUUUUCCUCGAGCAA, the nonsense suppression is reported as ≤ 0.026.
CUCUCGGUAGCCAAGUUGAUUUAAGGCGCAGGACUUUAAUUUAUCACUACGAAAUCUUGAGAUCGGGCGUUCGACUCGCCCCCGGGAGAUUUUUUCCUCGAGCAA gave a nonsense suppression of 0.0307.
In the case of CUCUCGGUAGCCAAGUUUGUUUAAGGCGCAAGACUUUAAUUUAUCACUACGAAAUCUUGAGAUCGGGCGUUCGCCUCGCCCCCGGGUGAUUUUUUCCUCGAGCAA, the nonsense suppression is reported as ≤ 0.026.
With CUCUCGGUAGCCAAGUUUGUUUAAGGCGCAAGACUUUAAUUUAUCACUACGAAAGCUUGAGAUCGGGCGUUCGACUCGCCCCCGGGAGAUUUUUUCCUCGAGCAA the nonsense suppression was ≤ 0.026.
For CUCUCGGUAGCCAAGUUUGUUUAAGGCGCAAGACUUUAAUUUAUCACUACGAAACCUUGAGAUCGGGCGUUCGACUCGCCCCCGGGAGAUUUUUUCCUCGAGCAA, the nonsense suppression was 0.0402.
With CUCUCGGUAGCCAAGUUUGUUUAAGGCGCAAGACUUUAAUUUAUCACUACGAAAUCUUGAUAUCGGGCGUUCGACUCGCCCCCGGGAGAUUUUUUCCUCGAGCAA the nonsense suppression was ≤ 0.026.
With CUCUCGGUAGCCAAGUUUGUUUAAGGCGCAAGACUUUAAUUUAUCACUACGAAAUCUUGAAAUCGGGCGUUCGACUCGCCCCCGGGAGAUUUUUUCCUCGAGCAA the nonsense suppression was ≤ 0.026.
For CUCUCGGUAGCCAAGUUUGUUUAAGGCGCAAGACUUUAAUUUAUCACUACGAAAUCUUGAGAUCGGGCGUUCGACUCGCCCCCGGGAUAUUUUUUCCUCGAGCAA, the nonsense suppression was ≤ 0.026.
With CUCUCGGUAGCCAAGUUUGUUUAAGGCGCAAGACUUUAAUUUAUCACUACGAAAUCUUGAGAUCGGGCGUUCGACUCGCCCCCGGGAAAUUUUUUCCUCGAGCAA the nonsense suppression was ≤ 0.026.
